From US20240209061A1 (Pfizer, published 2024)
Where “and” joins values, the source holds several entries; their conditions need not be identical. Equal values may be shown once.

Assays:
[1] = biological target: T1, CD28 expressed on Jurkat T cell line / human T cells (human, UniProt P10747 19-220); test: cell-based or functional assay
[2] = biological target: T1, CD28 expressed on Jurkat T cell line / …; test: flow cytometry on Jurkat cells, PE anti-human Fc detection
Protocol: (§1) Binding affinity of CD80-Fc fusion proteins (WT and variant) against CD28 expressed on Jurkat T cell line (ATCC TIB-152) was measured by flow cytometry. Jurkat cells (100,000 cells suspended in 100 μL PBS supplemented with 0.5% BSA, 2 mM EDTA, and 10% normal goat serum) were incubated with CD80-Fc fusion proteins at concentrations ranging 0.025-500 nM on ice for 30 minutes. Cells were then washed with PBS supplemented with 0.5% BSA and 2 mM EDTA twice. […] Afterward, cells were washed with PBS supplemented with 0.5% BSA and 2 mM EDTA twice. Finally, cells were suspended in PBS containing 0.5 μg/mL 7-amino-actinomycin D and acquired on BD LSRFortessa X-20 flow cytometer. Data were analyzed by Flowjo v10 software (Flowjo, LLC). FIG. 3 and Table 1 show the binding affinity of CD80-Fc fusion proteins (WT and variants) against CD28 expressed on Jurkat cells.

[3] = biological target: T1, CD28 expressed on Jurkat T cell line / …; test: cell-based or functional assay; remark: listed apart in the source
[4] = biological target: T1, CD28 expressed on Jurkat T cell line / …; test: cell-based or functional assay; remark: listed apart in the source
[5] = biological target: T1, CD28 expressed on Jurkat T cell line / …; test: flow cytometry on Jurkat cells (CD28), CD80-Fc 0.025-500 nM on ice, PE goat anti-human Fc
Protocol: as §1

[6] = biological target: T1, CD28 expressed on Jurkat T cell line / …; test: cell-based or functional assay; remark: listed apart in the source
insulin = biological target: T2, insulin; test: insulin-binding ELISA (non-specific binding)
T2 construct: Polyspecificity reagent
T2 sequence (P01308 25-54, chain 1 of 2): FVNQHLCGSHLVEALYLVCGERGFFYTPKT
T2 sequence (P01308 90-110, chain 2 of 2): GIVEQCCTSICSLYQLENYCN
Protocol: Variant CD80-Fc fusion proteins were assessed by measuring non-specific binding using a DNA- and insulin-binding ELISA (Avery et al., MAbs. 2018 February/March; 10(2): 244-255) and for self-interaction in an AC-SINS assay (affinity-capture self-interaction nanoparticle spectroscopy; Liu et al., 2014, mAbs 6:483-92). DNA- and insulin-binding scores were calculated as the signal ratio of the ELISA signal of the CD80-Fc fusion protein at 10 μg/ml to the ELISA signal in the absence of the Fc-fusion protein (buffer only). For the AC-SINS assay, proteins are captured by anti-human Fc antibodies coated on gold nanoparticles. […] The score ranges obtained from these in vitro assays correlate well with in vivo clearance using huFcRn transgenic (Tg32) mouse. Therapeutic proteins with high scores are at high risk for rapid clearance and unfavorable PK and therapeutics that score low are at low risk and favorable PK.

[7] = biological target: T1, CD28 expressed on Jurkat T cell line / …; test: cell-based or functional assay; remark: listed apart in the source

Row | Binder | EC50, luciferase reporter, Jurkat-CTLA-4-IL-2-Luc and HCT116-CD64 co-culture [1] | Kd [2] | EC50, luciferase reporter, Jurkat-NYESO1-IL-2-Luc and A375-CD64 co-culture (further experiment) [3] | EC50, luciferase reporter, Jurkat-IL-2-Luc and HCT116-CD64 co-culture (further experiment) [4] | EC50 (read off the curve) [5] | EC50, luciferase reporter, Jurkat-NYESO1-IL-2-Luc and A375-CD64 co-culture [3] | EC50, luciferase reporter, Jurkat-IL-2-Luc and HCT116-CD64 co-culture [4] | EC50, IL-2 release, primary T cell and HCT116-CD64 co-culture [6] | Insulin Score (insulin) | IL-2 EC50, human PBMC assay with plate-bound anti-CD3 (average of 5 donors) [7]
1 | CD80-D90K-Fc (Fc fusion) VIHVTKEVKEVATLSCGHNVSVEELAQTRIYWQKEKKMVLTMMSGDMNIWPEYKNRTIFDITNNLSIVILALRPSDEGTYECVVLKYEKKAFKREHLAEVTLSVKADFPTPSISDFEIPTSNIRRIICSTSGGFPEPHLSWLENGEELNAINTTVSQDPETELYAVSSKLDFNMTTNHSFMCLIKYGHLRVNQTFNWNTTKQEHFPDN[sequence of human IgG1 Fc with C220S (EU numbers) omitted] | 0.8 nM | 29 nM | – | – | ~30 nM | 9.1 ng/mL and 0.092 nM | 14.4 ng/mL and 0.145 nM | 17.9 ng/mL and 0.18 nM | – | –
2 | CD80-D90N-Fc (Fc fusion) VIHVTKEVKEVATLSCGHNVSVEELAQTRIYWQKEKKMVLTMMSGDMNIWPEYKNRTIFDITNNLSIVILALRPSDEGTYECVVLKYEKNAFKREHLAEVTLSVKADFPTPSISDFEIPTSNIRRIICSTSGGFPEPHLSWLENGEELNAINTTVSQDPETELYAVSSKLDFNMTTNHSFMCLIKYGHLRVNQTFNWNTTKQEHFPDN[sequence of human IgG1 Fc with C220S (EU numbers) omitted] | – | – | – | – | – | 10.5 ng/mL and 0.105 nM | 23.9 ng/mL and 0.24 nM | 0.33 nM and 33 ng/mL | – | –
3 | CD80-K89D-D90K-Fc (Fc fusion) VIHVTKEVKEVATLSCGHNVSVEELAQTRIYWQKEKKMVLTMMSGDMNIWPEYKNRTIFDITNNLSIVILALRPSDEGTYECVVLKYEDKAFKREHLAEVTLSVKADFPTPSISDFEIPTSNIRRIICSTSGGFPEPHLSWLENGEELNAINTTVSQDPETELYAVSSKLDFNMTTNHSFMCLIKYGHLRVNQTFNWNTTKQEHFPDN[sequence of human IgG1 Fc with C220S (EU numbers) omitted] | – | – | – | – | – | – | 8.8 ng/mL and 0.088 nM | 15.3 ng/mL and 0.16 nM | – | –
4 | CD80-K89D-D90N-Fc (Fc fusion) VIHVTKEVKEVATLSCGHNVSVEELAQTRIYWQKEKKMVLTMMSGDMNIWPEYKNRTIFDITNNLSIVILALRPSDEGTYECVVLKYEDNAFKREHLAEVTLSVKADFPTPSISDFEIPTSNIRRIICSTSGGFPEPHLSWLENGEELNAINTTVSQDPETELYAVSSKLDFNMTTNHSFMCLIKYGHLRVNQTFNWNTTKQEHFPDN[sequence of human IgG1 Fc with C220S (EU numbers) omitted] | – | – | – | – | – | 5.8 ng/mL and 0.059 nM | 22.7 ng/mL and 0.228 nM | 40.4 ng/mL and 0.41 nM | – | –
5 | CD80-K89D-D90Q-Fc (Fc fusion) VIHVTKEVKEVATLSCGHNVSVEELAQTRIYWQKEKKMVLTMMSGDMNIWPEYKNRTIFDITNNLSIVILALRPSDEGTYECVVLKYEDQAFKREHLAEVTLSVKADFPTPSISDFEIPTSNIRRIICSTSGGFPEPHLSWLENGEELNAINTTVSQDPETELYAVSSKLDFNMTTNHSFMCLIKYGHLRVNQTFNWNTTKQEHFPDN[sequence of human IgG1 Fc with C220S (EU numbers) omitted] | – | – | – | – | – | 5.5 ng/mL and 0.055 nM | 20.3 ng/mL and 0.204 nM | 35.8 ng/mL and 0.36 nM | – | –
6 | CD80-K89Q-D90Q-V22C-G45C-Fc (Fc fusion) VIHVTKEVKEVATLSCGHNVSCEELAQTRIYWQKEKKMVLTMMSCDMNIWPEYKNRTIFDITNNLSIVILALRPSDEGTYECVVLKYEQQAFKREHLAEVTLSVKADFPTPSISDFEIPTSNIRRIICSTSGGFPEPHLSWLENGEELNAINTTVSQDPETELYAVSSKLDFNMTTNHSFMCLIKYGHLRVNQTFNWNTTKQEHFPDN[sequence of human IgG1 Fc with C220S (EU numbers) omitted] | – | – | – | – | – | – | – | – | 1 ratio of ELISA signal at 10 µg/ml to buffer only | –
7 | CD80-K89Q-D90Q-I61C-Fc (Fc fusion, also called CD80-K89Q-D90Q-161C-Fc (so in the source)) VIHVTKEVKEVATLSCGHNVSVEELAQTRIYWQKEKKMVLTMMSGDMNIWPEYKNRTIFDCTNNLSIVILALRPSDEGTYECVVLKYEQQAFKREHLAEVTLSVKADFPTPSISDFEIPTSNIRRIICSTSGGFPEPHLSWLENGEELNAINTTVSQDPETELYAVSSKLDFNMTTNHSFMCLIKYGHLRVNQTFNWNTTKQEHFPDN[sequence of human IgG1 Fc with C220S (EU numbers) omitted] | – | – | – | – | – | – | – | – | 1 ratio of ELISA signal at 10 µg/ml to buffer only | –

Results, then the binder that gave them:

Row | EC50, luciferase reporter, Jurkat-CTLA-4-IL-2-Luc and HCT116-CD64 co-culture [1] | Kd [2] | EC50, luciferase reporter, Jurkat-NYESO1-IL-2-Luc and A375-CD64 co-culture (further experiment) [3] | EC50, luciferase reporter, Jurkat-IL-2-Luc and HCT116-CD64 co-culture (further experiment) [4] | EC50 (read off the curve) [5] | EC50, luciferase reporter, Jurkat-NYESO1-IL-2-Luc and A375-CD64 co-culture [3] | EC50, luciferase reporter, Jurkat-IL-2-Luc and HCT116-CD64 co-culture [4] | EC50, IL-2 release, primary T cell and HCT116-CD64 co-culture [6] | Insulin Score (insulin) | IL-2 EC50, human PBMC assay with plate-bound anti-CD3 (average of 5 donors) [7] | Binder
8 | 1.8 nM | 20 nM | 1.1 nM | 0.5 nM | ~20 nM | – | – | – | – | – | CD80-A91S-Fc (Fc fusion) VIHVTKEVKEVATLSCGHNVSVEELAQTRIYWQKEKKMVLTMMSGDMNIWPEYKNRTIFDITNNLSIVILALRPSDEGTYECVVLKYEKDSFKREHLAEVTLSVKADFPTPSISDFEIPTSNIRRIICSTSGGFPEPHLSWLENGEELNAINTTVSQDPETELYAVSSKLDFNMTTNHSFMCLIKYGHLRVNQTFNWNTTKQEHFPDN[sequence of human IgG1 Fc with C220S (EU numbers) omitted]
9 | 1 nM | 49 nM | – | – | ~50 nM | 9.8 ng/mL and 0.099 nM | 28.2 ng/mL and 0.285 nM | 31.9 ng/mL and 0.32 nM | 1 ratio of ELISA signal at 10 µg/ml to buffer only | 7.45 nM | CD80-D90Q-Fc (Fc fusion) VIHVTKEVKEVATLSCGHNVSVEELAQTRIYWQKEKKMVLTMMSGDMNIWPEYKNRTIFDITNNLSIVILALRPSDEGTYECVVLKYEKQAFKREHLAEVTLSVKADFPTPSISDFEIPTSNIRRIICSTSGGFPEPHLSWLENGEELNAINTTVSQDPETELYAVSSKLDFNMTTNHSFMCLIKYGHLRVNQTFNWNTTKQEHFPDN[sequence of human IgG1 Fc with C220S (EU numbers) omitted]
10 | 0.8 nM | 23 nM | – | – | ~30 nM | 11.5 ng/mL and 0.116 nM | 17.7 ng/mL and 0.179 nM | 43.3 ng/mL and 0.46 nM | 2 ratio of ELISA signal at 10 µg/ml to buffer only | 6.12 nM | CD80-K89Q-D90Q-Fc (Fc fusion) VIHVTKEVKEVATLSCGHNVSVEELAQTRIYWQKEKKMVLTMMSGDMNIWPEYKNRTIFDITNNLSIVILALRPSDEGTYECVVLKYEQQAFKREHLAEVTLSVKADFPTPSISDFEIPTSNIRRIICSTSGGFPEPHLSWLENGEELNAINTTVSQDPETELYAVSSKLDFNMTTNHSFMCLIKYGHLRVNQTFNWNTTKQEHFPDN[sequence of human IgG1 Fc with C220S (EU numbers) omitted]
11 | 1.8 nM | 91 nM | – | – | – | 89.6 ng/mL and 0.906 nM | 70.2 ng/mL and 0.709 nM | 92.9 ng/mL and 0.94 nM | – | – | CD80-K89Q-Fc (Fc fusion) VIHVTKEVKEVATLSCGHNVSVEELAQTRIYWQKEKKMVLTMMSGDMNIWPEYKNRTIFDITNNLSIVILALRPSDEGTYECVVLKYEQDAFKREHLAEVTLSVKADFPTPSISDFEIPTSNIRRIICSTSGGFPEPHLSWLENGEELNAINTTVSQDPETELYAVSSKLDFNMTTNHSFMCLIKYGHLRVNQTFNWNTTKQEHFPDN[sequence of human IgG1 Fc with C220S (EU numbers) omitted]
